# Results published in PubChem BioAssay AID1347165 (National Center for Advancing Translational Sciences (NCATS), 2019).
# About 5,700 (2.6%) of roughly 220,000 compounds were called active. This list was built around the results that the source calls inconclusive (neither active nor inactive); the mix of calls is not that of the screen. The call rests on the fitted dose curve; in most records, active means well fitted inhibition curve with a large enough effect; inconclusive means small, poorly fitted or top-dose-only effect; inactive means no such curve, though single readings can be large or run the other way. Potencies of inconclusive entries are doubtful fits and often do not repeat.
# Target: Lysine-specific demethylase 5B (Homo sapiens) (UniProt Q9UGL1)
# Chain of UniProt Q9UGL1 (Q9UGL1 whole entry, looked up): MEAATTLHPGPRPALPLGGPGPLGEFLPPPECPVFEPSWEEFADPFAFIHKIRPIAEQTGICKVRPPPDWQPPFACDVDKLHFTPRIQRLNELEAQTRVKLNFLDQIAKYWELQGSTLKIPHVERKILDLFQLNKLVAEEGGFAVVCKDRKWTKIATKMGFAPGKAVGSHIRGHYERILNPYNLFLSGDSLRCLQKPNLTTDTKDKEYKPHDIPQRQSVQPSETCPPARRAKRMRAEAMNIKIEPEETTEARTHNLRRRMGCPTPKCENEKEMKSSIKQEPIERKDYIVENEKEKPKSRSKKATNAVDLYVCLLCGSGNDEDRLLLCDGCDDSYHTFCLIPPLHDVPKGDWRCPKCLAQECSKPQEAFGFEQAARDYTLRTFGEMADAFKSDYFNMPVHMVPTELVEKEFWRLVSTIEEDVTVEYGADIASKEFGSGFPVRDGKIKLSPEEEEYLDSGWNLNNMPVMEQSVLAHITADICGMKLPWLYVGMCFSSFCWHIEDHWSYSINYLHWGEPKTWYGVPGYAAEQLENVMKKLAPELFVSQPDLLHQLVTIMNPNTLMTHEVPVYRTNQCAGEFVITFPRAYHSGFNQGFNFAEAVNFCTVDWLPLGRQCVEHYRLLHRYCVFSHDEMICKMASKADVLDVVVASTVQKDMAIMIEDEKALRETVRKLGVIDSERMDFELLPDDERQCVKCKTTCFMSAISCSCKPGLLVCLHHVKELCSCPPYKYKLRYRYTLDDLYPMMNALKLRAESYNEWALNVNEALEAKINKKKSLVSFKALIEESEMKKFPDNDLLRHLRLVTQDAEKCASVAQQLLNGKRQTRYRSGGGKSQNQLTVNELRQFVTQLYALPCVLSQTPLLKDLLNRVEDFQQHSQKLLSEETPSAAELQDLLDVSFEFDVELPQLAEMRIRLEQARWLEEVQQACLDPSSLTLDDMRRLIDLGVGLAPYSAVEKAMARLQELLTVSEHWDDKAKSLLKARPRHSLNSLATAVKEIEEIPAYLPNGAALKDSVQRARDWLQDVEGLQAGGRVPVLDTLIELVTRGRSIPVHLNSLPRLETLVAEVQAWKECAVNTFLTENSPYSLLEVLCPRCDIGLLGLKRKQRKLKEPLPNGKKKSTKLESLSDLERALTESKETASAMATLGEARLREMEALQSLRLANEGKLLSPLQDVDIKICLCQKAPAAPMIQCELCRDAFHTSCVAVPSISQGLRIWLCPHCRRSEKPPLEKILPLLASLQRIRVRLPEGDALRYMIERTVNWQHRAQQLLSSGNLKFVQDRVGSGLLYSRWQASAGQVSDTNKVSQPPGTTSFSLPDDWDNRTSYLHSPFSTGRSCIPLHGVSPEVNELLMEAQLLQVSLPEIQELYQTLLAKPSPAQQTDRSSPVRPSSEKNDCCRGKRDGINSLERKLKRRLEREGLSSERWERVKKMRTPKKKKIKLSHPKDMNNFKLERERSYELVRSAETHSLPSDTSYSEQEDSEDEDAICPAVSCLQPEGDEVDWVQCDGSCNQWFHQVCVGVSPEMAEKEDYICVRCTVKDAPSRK
# Assay: Primary screen for KDM5B Histone Demethylases FDH-coupled qHTS; further: nearly all actives have a fitted effect of over 70% in size; on activity change, negative = inhibition: 0% is about no effect
# Conditions: FDH-coupled NADH fluorescence (FDH is formaldehyde dehydrogenase); activity change, negative = inhibition: at 57.7 µM (top of the series) unless noted
# Method in brief: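 Here, H3K4me3 peptide (12.5 µM in substrate mix) is demethylated by KDM5BΔAP, 200 nM final, after 10 min compound exposure. Formaldehyde product is coupled through FDH (0.25 U/mL in mix) to NADH fluorescence; 30-min ΔRFU feeds dose-response curves.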
# Potency means the concentration at half of the fitted maximal effect; tags describe the fitted curve by direction and shape.
Structure (SMILES),Potency,"activity change, negative = inhibition"
Cn1nccc1-c1cccc(CCOc2cnc3c(ccn3CC(=O)O)c2)c1,"inconclusive: 39.8 µM [inhibitor, partial curve, poor fit]",–
O=C(CCC(=O)OCC(=O)c1cccc([N+](=O)[O-])c1)Nc1cc(C(F)(F)F)ccc1Cl,–,inactive: 10.7%
O=C(CCc1ccccc1)N1CC(Oc2ccc(-c3nc(-c4ccccc4)no3)cc2)C1,"inconclusive: 28.2 µM [inhibitor, partial curve, poor fit]",–
O=C(Nc1noc2ccccc12)c1cccc(F)c1,"inconclusive: 8.91 µM [inhibitor, partial curve, poor fit]",–
N#Cc1nc(-c2ccc(S(=O)(=O)N3CCCCC3)cc2)oc1NCc1ccc2c(c1)OCO2,–,inactive: -32.1%
CCn1ccc(C(=O)N2CCCN(S(C)(=O)=O)C(c3ccccc3)CC(=O)NCC2)n1 (stereo unspecified),–,inactive: 8.51%
COc1ccc(Cl)cc1NC(=O)Cn1ccn2nc(-c3ccccc3)c(CO)c2c1=O,"inconclusive: 15.8 µM [inhibitor, partial curve]",–
CCCn1nc(S(=O)(=O)N2CCCC2)c(C(=O)OCC)c1C,–,inactive: -21.6%
COC(=O)c1ccc(Cn2nc(-c3ccc(C)c(C)c3)ccc2=O)cc1,"inconclusive: 25.1 µM [inhibitor, partial curve, poor fit]",–
Cc1ccc(C2Cn3cnc(C(=O)N4CCC(C(=O)NCc5ccccc5C)CC4)c3CO2)cc1 (stereo unspecified),–,inactive: -8.41%
COC(=O)c1cc(NCc2cccc3ccccc23)ccc1N1CCOCC1,"inconclusive: 28.2 µM [inhibitor, partial curve, poor fit]",–
CCC1CN(C(=O)N2CCC(C(=O)NCCOC)CC2)c2ccccc2O1 (stereo unspecified),–,inactive: -9.51%
Clc1ccc(N/N=C/c2c(Cl)cccc2Cl)cc1Cl,–,inactive: -26.4%
CCOC(=O)NCC(=O)NCc1cccnc1,–,inactive: -1.3%
CCN1CCc2c(sc3c2c(=O)n(-c2ccc(Cl)cc2)c(=O)n3CCN2CCCC2)C1,"inconclusive: 14.1 µM [inhibitor, partial curve, poor fit]",–
CCN1CCN(C(=O)Cn2nc(C)c3sc(-c4ccccc4)nc3c2=O)CC1,active: 22.4 µM,–
C1=C(c2cc(-c3cccc4cn[nH]c34)cn3cncc23)CCOC1,active: 31.6 µM,–
Cc1ccc(/C=C2\CC(c3ccccc3)c3ccccc3C2=O)cc1 (stereo unspecified),–,inactive: 5.82%
COCCN1CCC2(CCC1=O)CN(c1ccc(C#N)cn1)CCN2C (stereo unspecified),active: 28.2 µM,–
CCC[C@@H]1CN(C(=O)c2ccc(OC)o2)C[C@H]1C(=O)O,"inconclusive: 17.8 µM [inhibitor, partial curve, poor fit]",–
Cc1nnc(-c2cc(-c3ccccc3)ccn2)n1CCc1ccccc1,–,inactive: 8.26% [at 86.2 µM]
CC(C)Cc1ccc(C(C)NC(=O)C2CC2C)cc1 (stereo unspecified),–,inactive: 24.8%
CC1(C)CC(CNCc2ccco2)CCO1 (stereo unspecified),"inconclusive: 20 µM [inhibitor, single point]",–

Structure (SMILES),Potency,"activity change, negative = inhibition"
O=C(COc1ccc(-n2cnnn2)cc1)N1CCN(S(=O)(=O)c2ccc3ccccc3c2)CC1,–,inactive: 13.3%
COCCNc1ccc2nnc(-c3ccc(C)cn3)n2n1,"inconclusive: 31.6 µM [inhibitor, single point]",–
Cc1ccc(NC(=O)c2nc3ccccc3nc2N2CCN(C)CC2)cc1Cl,"inconclusive: 39.8 µM [inhibitor, single point]",–
CC(OC(=O)c1cc(=O)[nH]c2ccccc12)C(=O)Nc1ccc(Cl)cn1 (stereo unspecified),"inconclusive: 28.2 µM [inhibitor, partial curve, poor fit]",–
CCN(CC)c1ccc(/C=N/c2sc(C)c(C)c2C#N)cc1,–,inactive: -16.6%
CCC(Sc1nc2ccncc2[nH]1)C(=O)Nc1ccc(C)cc1 (stereo unspecified),"inconclusive: 10 µM [inhibitor, partial curve, poor fit]",–
Cc1ccc(-c2cc(N3CCCN(C(=O)c4ccc(N(C)C)cc4)CC3)n[nH]2)cc1C,"inconclusive: 17.8 µM [inhibitor, partial curve, poor fit]",–
COc1cc(NC(=O)Cn2c(=O)n(C(C)C)c(=O)c3oc4ccccc4c32)cc(OC)c1,"inconclusive: 39.8 µM [inhibitor, single point]",–
CCOc1ccc(S(=O)(=O)NCCc2sc(-c3ccc(C)cc3)nc2C)cc1,"inconclusive: 35.5 µM [inhibitor, partial curve, poor fit]",–
CCOc1ccccc1N1CC(c2nc3ccccc3n2CCCOc2ccccc2OC)CC1=O (stereo unspecified),"inconclusive: 28.2 µM [inhibitor, partial curve, poor fit]",–
COc1cccc(CNC(=O)Cn2ccc3cc(S(=O)(=O)N4CCCC4)ccc32)c1,"inconclusive: 28.2 µM [inhibitor, partial curve, poor fit]",–
COc1ccc(CNc2oc(COc3ccc(C)cc3)nc2C#N)cc1,"inconclusive: 22.4 µM [inhibitor, partial curve, poor fit]",–
CCOC(=O)Nc1ccc(S(=O)(=O)Nc2cccc(F)c2)cc1,–,inactive: 14.3%
CC(=O)N1CCC(N2CC[C@H](c3nc4ncccc4[nH]3)C2)CC1,"inconclusive: 39.8 µM [inhibitor, partial curve, poor fit]",–
O=C(COC(=O)c1c[nH]c2ccccc12)Nc1ccc(N2CCOCC2)cc1,–,inactive: -3.55%
O=C(c1ccccn1)N1CCN(Cc2ccc(=O)n(CC3CC3)c2)CC1,active: 15.8 µM,–
CCNC(=O)Nc1ccc(OCC(=O)N2CCN(c3ccccn3)CC2)nc1,"inconclusive: 22.4 µM [inhibitor, partial curve, poor fit]",–
Fc1ccc2c(c1)Sc1ccc(Cl)cc1CC2N1CCN(CCC2OCCO2)CC1 (stereo unspecified),–,inconclusive: -30.6% [inhibitor]
COC(=O)c1ccccc1NCc1cc(=O)oc2cc(O)c(O)cc12,"inconclusive: 31.6 µM [inhibitor, partial curve, poor fit]",–
COc1ccccc1-c1nc(C(=O)NCc2ccc(F)cc2)n2ccncc12,active: 89.1 µM,–
O=C(NCCc1ccccn1)c1ccc(C2CCCCC2)cc1,–,inactive: -0.15%
CN1CCC([C@@H]2CN(C(=O)c3ccc4[nH]ccc4c3)C[C@H]2C(N)=O)CC1,–,inactive: 20.4%
CC(=O)Nc1ccccc1NC(=O)CN1CCN(Cc2ncccc2C)CC1,"inconclusive: 20 µM [inhibitor, partial curve, poor fit]",–
